This is one part of the list. Values were computed here from the reads of four pooled replicates and scatter widely.
Each sequence was assayed against T1, Pho4 (S. cerevisiae) (UniProt P07270) (assay: relative binding free energy (BET-seq); higher = weaker binding). Conditions: reference: library average.
T1 sequence: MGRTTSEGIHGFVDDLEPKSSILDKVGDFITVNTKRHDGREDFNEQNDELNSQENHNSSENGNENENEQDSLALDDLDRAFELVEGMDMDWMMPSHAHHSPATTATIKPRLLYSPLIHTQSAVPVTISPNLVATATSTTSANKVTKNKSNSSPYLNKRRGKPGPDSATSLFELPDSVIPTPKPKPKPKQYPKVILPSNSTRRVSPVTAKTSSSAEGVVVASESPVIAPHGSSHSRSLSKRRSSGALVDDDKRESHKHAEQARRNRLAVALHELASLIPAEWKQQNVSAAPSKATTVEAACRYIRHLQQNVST

| Sequence | relative binding free energy [kcal/mol] |
| --- | --- |
| TGAAGCACGTGGGAGG | -0.11 |
| CGGAACACGTGGCGGG | -0.17 |
| GTTCGCACGTGGTAAG | -0.01 |
| AAGTACACGTGTTGAT | -0.03 |
| TAGGTCACGTGAGTAT | 0.34 |
| CAAGACACGTGGTTTG | 0.1 |
| TTTAGCACGTGTGATG | 0.1 |
| CTGATCACGTGGTAGG | -0.04 |
| GATGACACGTGTAGTT | 0.15 |
| GTTGGCACGTGATGAA | 0.04 |
| CATGACACGTGTGGTA | 0.07 |
| GGGCACACGTGGGTAA | -0.14 |
| TTTATCACGTGATTAA | 0.21 |
| GATTACACGTGAAGTG | 0.29 |
| GTAAACACGTGTGGTC | 0.16 |
| AGGTGCACGTGGTTAG | -0.06 |
| TATAGCACGTGACGGG | 0.17 |
| GCGTTCACGTGGTGTC | 0.33 |
| GCTTTCACGTGGGTTG | 0.14 |
| GGTGCCACGTGTGGGG | -0.06 |
| GGGGGCACGTGGACGT | -0.14 |
| AAGGGCACGTGGAGAA | -0.1 |
| AATAGCACGTGACGGG | -0.03 |

| Sequence | relative binding free energy [kcal/mol] |
| --- | --- |
| CGTGGCACGTGTGGTA | -0.04 |
| TTGGTCACGTGATTCT | 0.3 |
| AAGTTCACGTGGCTGT | 0.22 |
| TTGTTCACGTGGATAC | 0.34 |
| ACATGCACGTGGGCTG | -0.15 |
| TTTAACACGTGGAAAA | 0.23 |
| ATATTCACGTGTTGCA | 0.15 |
| TAGAACACGTGTTTAT | 0.07 |
| AGGGTCACGTGCGACG | 0.13 |
| GGAGGCACGTGGGCGC | -0.29 |
| TGATGCACGTGTTGTA | -0.01 |
| TTTGACACGTGGTATG | -0.02 |
| TGGGTCACGTGGAGTT | 0.23 |
| CTATGCACGTGGTGTT | -0.15 |
| TTGGGCACGTGGCGTG | -0.29 |
| ATTCTCACGTGCGTGT | 0.14 |
| AGAGACACGTGGGTGA | -0.19 |
| TATTACACGTGGAGGC | 0.19 |
| ATGATCACGTGGTTGC | 0.06 |
| TTGTTCACGTGGCCGG | 0.14 |
| GAAGGCACGTGGAGTT | -0.18 |
| GGTAGCACGTGTGCTA | -0.05 |
| GTCATCACGTGTGGGG | 0.29 |

| Sequence | relative binding free energy [kcal/mol] |
| --- | --- |
| GTTTACACGTGGGGTC | 0.05 |
| ATATGCACGTGGCGGC | -0.1 |
| TGGTGCACGTGGCAGC | -0.08 |
| TTGATCACGTGGTCAT | -0.04 |
| AGTAGCACGTGTTTCG | -0.09 |
| GAGTGCACGTGGCGTT | -0.05 |
| CGGTGCACGTGCGTTG | -0.08 |
| TTTTACACGTGGCGAT | -0.12 |
| GATTGCACGTGTTTTT | 0.11 |
| GTCTGCACGTGAGTGA | 0.22 |
| TTTCACACGTGCGTTT | 0.05 |
| AAGTGCACGTGTGTTT | -0.07 |
| TTTTTCACGTGGTGCC | 0.32 |
| ACGGGCACGTGGTTTA | -0.19 |
| TAAGTCACGTGTTTAA | 0.2 |
| GATGGCACGTGTGTCA | -0.05 |
| TGTGTCACGTGGGTTT | 0.04 |
| TAAAGCACGTGGTTCG | -0.11 |
| AGTGGCACGTGATGAG | 0.17 |
| TGCGTCACGTGGGGGT | -0.04 |
| GGTTTCACGTGGACTT | 0.27 |
| ATAGTCACGTGGCAGT | 0.09 |
| TGTTTCACGTGTTATT | 0.27 |

| Sequence | relative binding free energy [kcal/mol] |
| --- | --- |
| CTTTTCACGTGATCGG | 0.38 |
| AGCAGCACGTGTGGCG | -0.06 |
| TAGATCACGTGTTGAG | 0.19 |
| GGGAGCACGTGGCGTA | -0.16 |
| TTAATCACGTGACGGT | 0.16 |
| TAGCACACGTGGGTTT | 0.12 |
| GAGTGCACGTGAACGG | 0.32 |
| CATGGCACGTGGATAT | -0.03 |
| GTTTACACGTGTGTGA | 0.23 |
| TGTGGCACGTGATAGA | 0.02 |
| CTTGGCACGTGTAGAA | 0.15 |
| GAGGGCACGTGAGAGA | 0.34 |
| GCGGGCACGTGTTGCT | -0.01 |
| ATGGTCACGTGTCTAT | 0.01 |
| TTTTTCACGTGAGCTA | 0.24 |
| GTTTACACGTGGTCGT | 0.1 |
| AGGTACACGTGGGCCG | -0.09 |
| AGTGACACGTGAGTTT | 0.24 |
| GATAGCACGTGGTGAG | -0.01 |
| GGCTCCACGTGGTAGT | 0.18 |
| TATGTCACGTGATTAA | 0.32 |
| CGGGGCACGTGTGAGA | -0.01 |
| TGGGGCACGTGATGTG | 0.04 |

| Sequence | relative binding free energy [kcal/mol] |
| --- | --- |
| TTGTACACGTGGGATG | 0.02 |
| TGCTGCACGTGGTACG | -0.09 |
| GGTTTCACGTGCGGTT | 0.31 |
| GTTAGCACGTGACTGT | 0.07 |
| AGGCCCACGTGTGGTT | -0.02 |
| TGGCACACGTGTTAGT | 0.15 |
| GTGAGCACGTGGCGGG | -0.17 |
| CTTGACACGTGGCGGG | -0.13 |
| TTACTCACGTGATGGG | 0.4 |
| GTGTGCACGTGTGCGG | 0.01 |
| CGTGTCACGTGGGCAA | -0.05 |
| ATGTTCACGTGGAATC | 0.24 |
| TTGGACACGTGTTGGA | 0.17 |
| GTGTTCACGTGTTTAA | 0.13 |
| TTCGGCACGTGGTACG | -0.3 |
| AGTTTCACGTGTTTCT | 0.22 |
| TTGTGCACGTGCCGAT | -0.02 |
| GTGGTCACGTGGGTCT | 0.01 |
| TGGCTCACGTGGCATT | 0.2 |
| CTCAACACGTGGGGGG | -0.06 |
| CTTCTCACGTGTGGGG | 0.12 |
| GTTTGCACGTGAATAG | 0.37 |
| TGCTGCACGTGGAATT | 0.08 |
